# Out of some 110,000 compounds screened, about 230 (0.21%) showed an effect of 50% or more. The list shows a part of the results.
# Biological target: DPAP1 (Plasmodium falciparum, UniProt Q8IIJ9)
# Assay: primary screen, percent inhibition; read by cleavage of a fluorogenic dipeptide substrate; higher = more effect of the substance
# Design: species or system P. falciparum D10 trophozoite lysates; single well
# 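Also: 30 min substrate incubation versus DMSO and 10 µM JCP410 controls.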
# Sequence of DPAP1 (Q8IIJ9 whole entry, looked up): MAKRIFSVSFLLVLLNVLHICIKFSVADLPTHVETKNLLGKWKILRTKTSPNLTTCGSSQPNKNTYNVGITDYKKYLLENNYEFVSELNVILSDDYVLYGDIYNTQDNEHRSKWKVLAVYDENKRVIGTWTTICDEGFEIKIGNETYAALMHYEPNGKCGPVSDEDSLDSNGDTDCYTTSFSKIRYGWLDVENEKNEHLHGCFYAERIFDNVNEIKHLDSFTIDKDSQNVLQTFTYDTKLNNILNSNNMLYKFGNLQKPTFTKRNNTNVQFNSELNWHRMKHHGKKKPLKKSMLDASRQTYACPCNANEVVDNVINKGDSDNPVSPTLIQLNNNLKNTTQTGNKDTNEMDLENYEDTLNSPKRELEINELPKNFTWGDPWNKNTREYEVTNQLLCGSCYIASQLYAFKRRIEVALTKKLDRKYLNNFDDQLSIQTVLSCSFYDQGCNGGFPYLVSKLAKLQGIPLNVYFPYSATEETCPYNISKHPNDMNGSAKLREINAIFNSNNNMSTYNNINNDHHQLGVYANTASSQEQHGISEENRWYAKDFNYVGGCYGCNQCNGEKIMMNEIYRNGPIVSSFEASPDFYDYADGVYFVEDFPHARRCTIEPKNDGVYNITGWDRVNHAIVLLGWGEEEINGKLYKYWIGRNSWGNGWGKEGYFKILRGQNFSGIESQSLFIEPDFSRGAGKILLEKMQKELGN
row,SMILES,% Inhibition @ 10 uM
1,Cc1ccc(NC(=O)CC2SC(Nc3ccc(S(N)(=O)=O)cc3)=NC2=O)cc1 (stereo not shown),2.22%
2,COc1cc(/C=C2/C(=N)N3C=C(C)SC3=NC2=O)ccc1OCc1ccc2c(c1)OCO2,0.565%
3,Cc1ccc(C(=O)N/C(=C\c2ccc(Cl)cc2)C(=O)N2CCOCC2)cc1,-7.02%
4,OCCN(CCO)C1Cc2ccccc2C1,-1.5%
5,Cc1ccc(NS(=O)(=O)c2ccc(F)cc2)cc1Cl,-0.856%
6,Cc1ccc(C(=O)Nc2cccnc2Cl)cc1C,-5.81%
7,O=C(c1ccc2nc(N3CCCCC3)sc2c1)N1CCN(C(=O)c2ccco2)CC1,-2.37%
8,CCc1ccc(C2NC(=O)c3[nH]nc(-c4ccc(OC)cc4)c32)cc1 (stereo not shown),1.9%
9,CCOc1ccc(C(=O)NCC2CCN(C(=O)c3ccc(OCC)cc3)CC2)cc1,5%
10,Cc1nc2ccccc2cc1C(=O)Nc1ccccc1F,8.1%
11,Cc1ccc(-n2ccc(N)c(C#N)c2=O)cc1,-3.16%
12,O=C(Nc1c2c(nn1-c1ccc(Cl)cc1)CS(=O)(=O)C2)c1cccc(C(F)(F)F)c1,7.39%
13,CCCn1nnnc1NCc1ccc(F)cc1,3.38%
14,COCCNC(=O)c1ccc(CS(=O)(=O)Cc2ccccc2C)o1,3.24%
15,COc1ccc(S(=O)(=O)NCCC(=O)NCc2cccs2)cc1,-2.26%
16,COc1ccc(CN2CCN(c3ccccc3)CC2)cc1OC,-1.77%
17,CC(C)C(NC(=O)CCN1C(=O)c2ccccc2C1=O)c1ccccc1 (stereo not shown),2.24%
18,Cc1ccc(Cn2c(=O)c3c(ncn3C)n(C)c2=O)cc1,7.98%
19,O=C(Cn1cnc2onc(-c3ccc(F)cc3)c2c1=O)N1CCN(c2ccccn2)CC1,-4.96%
20,CCc1ccc(C2C(C#N)=C(N)N(c3cccnc3)C3=C2C(=O)CCC3)s1 (stereo not shown),3.79%
21,CC(C)c1ccccc1OCC(=O)Nc1ccc(S(=O)(=O)N2CCCCC2)cc1,0.913%
22,CC1CCCCC1N(C)C1CCN(CCCNC(=O)/C=C/c2cccs2)CC1 (stereo not shown),-4.71%
23,Cc1cc(OCc2nc3ccccc3[nH]2)ccc1C(C)C,-6.82%
24,CCCOc1ccc(C(=O)N(Cc2ccccc2)c2ccccn2)cc1,-4.95%
25,Nc1nc2c(s1)C(=O)c1ccccc1-2,-1.8%

row,SMILES,% Inhibition @ 10 uM
1,O=C(CN1C(=O)c2cccc3cccc(c23)C1=O)NCCCO,-0.949%
2,CCOC(=O)c1c(C)[nH]c(C)c1S(=O)(=O)N1CCOCC1,-5%
3,C=CCn1c2ccccc2c2nnc(SCC(=O)Nc3ccccn3)nc21,-0.597%
4,COc1ccc(C(=O)Nc2ccccc2Cl)cc1OC,-3.13%
5,CC(=O)c1c(C)[nH]c(C(=O)NCc2ccc(C)cc2)c1C,-0.499%
6,C=Cc1ccc(Cn2c(C(=O)OC)c(NC(C)=O)c3c(C)c(C)sc32)cc1,-3.34%
7,c1cnc2[nH]c(Nc3nc4ccccc4s3)nc2c1,-4.15%
8,CC(C)CNS(=O)(=O)c1ccc(CCC(=O)N2CCN(c3ccccc3F)CC2)cc1,2.01%
9,CCc1ccc(C2=NN(CCC(=O)NCCC3=CCCCC3)C(=O)CC2)cc1,-8.34%
10,COc1ccc(C2CC(c3ccc(Cl)cc3)=NN2c2nc(-c3cc(C)ccc3C)cs2)cc1OC (stereo not shown),1.08%
11,Cc1ccc(-n2c(C)cc(C)nc2=O)cc1,1.21%
12,Cc1ccc(C)c(NC(=O)c2cncc(Br)c2)c1,-6.02%
13,CCOC(=O)c1c(S(=O)(=O)NCc2ccc(C)o2)c(C)n(C)c1C,-3%
14,Cc1cc(C)nc(Sc2ccc3nnc(C(F)(F)C(F)(F)C(F)(F)F)n3n2)n1,5.55%
15,Cc1cc(C(=O)Nc2ncc(Br)cc2Br)ccc1[N+](=O)[O-],0.912%
16,CCOc1ccccc1/C=C1/NC(=O)NC1=O,5.37%
17,CCOC(=O)c1sc(N2C(=O)c3oc4ccccc4c(=O)c3C2c2cccc(Cl)c2)nc1C (stereo not shown),-8.7%
18,Cc1ccc(-c2cc(C(=O)N3CCN(C(=O)c4ccco4)CC3)[nH]n2)c(C)c1,2.62%
19,Cc1cc(C(F)F)n2nc(C(=O)Nc3ccc(S(=O)(=O)N4CCCC4)cc3)nc2n1,-1.88%
20,CCOc1ccc(CNS(=O)(=O)c2cc(-c3onc(C)c3C)ccc2C)cc1OC,3.53%
21,Cc1ccc(C(=O)N/C(=C\c2cccs2)C(=O)Nc2ccccc2)cc1C,-6.36%
22,CCOc1ccccc1C(=O)Nc1ccccn1,-7.08%
23,CC(c1ccccc1)N1C(=O)c2ccc(C(=O)NCc3ccco3)cc2C1=O (stereo not shown),-0.132%
24,CC(C)OCCCNC(=O)C1CCN(C(=O)c2cc3sccc3n2C)CC1,3.4%

# From publication PMC6919601, “Identification of Plasmodium dipeptidyl aminopeptidase allosteric inhibitors by high throughput screening” (PLoS ONE, 2019)
